Measured values from publication PMC6786517.
Results are given in words; binding and its absence hold for the method and conditions named. Binding seen in cells or lysates may run through a third protein. Some results given as binding are weak or reduced against the parent protein; the word gives no strength. For some assays here: Where a sequence is shown, tags or fusion partners need not be part of it. Blank lines part the entries; values can stand above or below the substance they belong to.

Amino acid sequences for entries named in this document (tags omitted). A change or cut given only in a name is not applied to a line headed by its entry.
UniProt Q60598: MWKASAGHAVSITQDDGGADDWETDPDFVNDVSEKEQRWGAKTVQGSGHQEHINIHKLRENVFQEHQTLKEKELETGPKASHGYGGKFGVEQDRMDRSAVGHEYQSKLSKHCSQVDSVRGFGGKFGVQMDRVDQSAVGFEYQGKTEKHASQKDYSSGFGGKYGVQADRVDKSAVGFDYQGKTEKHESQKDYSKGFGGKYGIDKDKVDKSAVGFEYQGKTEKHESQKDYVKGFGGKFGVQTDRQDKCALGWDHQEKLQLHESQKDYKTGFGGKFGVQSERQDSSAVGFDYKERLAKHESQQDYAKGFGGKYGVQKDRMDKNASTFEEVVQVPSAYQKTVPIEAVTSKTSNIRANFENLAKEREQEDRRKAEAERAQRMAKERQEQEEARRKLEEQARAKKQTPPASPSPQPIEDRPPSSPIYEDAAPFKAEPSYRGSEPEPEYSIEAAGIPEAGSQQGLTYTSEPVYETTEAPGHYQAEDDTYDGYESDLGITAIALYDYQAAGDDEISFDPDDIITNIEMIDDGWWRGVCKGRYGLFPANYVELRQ
UniProt Q4ACU6: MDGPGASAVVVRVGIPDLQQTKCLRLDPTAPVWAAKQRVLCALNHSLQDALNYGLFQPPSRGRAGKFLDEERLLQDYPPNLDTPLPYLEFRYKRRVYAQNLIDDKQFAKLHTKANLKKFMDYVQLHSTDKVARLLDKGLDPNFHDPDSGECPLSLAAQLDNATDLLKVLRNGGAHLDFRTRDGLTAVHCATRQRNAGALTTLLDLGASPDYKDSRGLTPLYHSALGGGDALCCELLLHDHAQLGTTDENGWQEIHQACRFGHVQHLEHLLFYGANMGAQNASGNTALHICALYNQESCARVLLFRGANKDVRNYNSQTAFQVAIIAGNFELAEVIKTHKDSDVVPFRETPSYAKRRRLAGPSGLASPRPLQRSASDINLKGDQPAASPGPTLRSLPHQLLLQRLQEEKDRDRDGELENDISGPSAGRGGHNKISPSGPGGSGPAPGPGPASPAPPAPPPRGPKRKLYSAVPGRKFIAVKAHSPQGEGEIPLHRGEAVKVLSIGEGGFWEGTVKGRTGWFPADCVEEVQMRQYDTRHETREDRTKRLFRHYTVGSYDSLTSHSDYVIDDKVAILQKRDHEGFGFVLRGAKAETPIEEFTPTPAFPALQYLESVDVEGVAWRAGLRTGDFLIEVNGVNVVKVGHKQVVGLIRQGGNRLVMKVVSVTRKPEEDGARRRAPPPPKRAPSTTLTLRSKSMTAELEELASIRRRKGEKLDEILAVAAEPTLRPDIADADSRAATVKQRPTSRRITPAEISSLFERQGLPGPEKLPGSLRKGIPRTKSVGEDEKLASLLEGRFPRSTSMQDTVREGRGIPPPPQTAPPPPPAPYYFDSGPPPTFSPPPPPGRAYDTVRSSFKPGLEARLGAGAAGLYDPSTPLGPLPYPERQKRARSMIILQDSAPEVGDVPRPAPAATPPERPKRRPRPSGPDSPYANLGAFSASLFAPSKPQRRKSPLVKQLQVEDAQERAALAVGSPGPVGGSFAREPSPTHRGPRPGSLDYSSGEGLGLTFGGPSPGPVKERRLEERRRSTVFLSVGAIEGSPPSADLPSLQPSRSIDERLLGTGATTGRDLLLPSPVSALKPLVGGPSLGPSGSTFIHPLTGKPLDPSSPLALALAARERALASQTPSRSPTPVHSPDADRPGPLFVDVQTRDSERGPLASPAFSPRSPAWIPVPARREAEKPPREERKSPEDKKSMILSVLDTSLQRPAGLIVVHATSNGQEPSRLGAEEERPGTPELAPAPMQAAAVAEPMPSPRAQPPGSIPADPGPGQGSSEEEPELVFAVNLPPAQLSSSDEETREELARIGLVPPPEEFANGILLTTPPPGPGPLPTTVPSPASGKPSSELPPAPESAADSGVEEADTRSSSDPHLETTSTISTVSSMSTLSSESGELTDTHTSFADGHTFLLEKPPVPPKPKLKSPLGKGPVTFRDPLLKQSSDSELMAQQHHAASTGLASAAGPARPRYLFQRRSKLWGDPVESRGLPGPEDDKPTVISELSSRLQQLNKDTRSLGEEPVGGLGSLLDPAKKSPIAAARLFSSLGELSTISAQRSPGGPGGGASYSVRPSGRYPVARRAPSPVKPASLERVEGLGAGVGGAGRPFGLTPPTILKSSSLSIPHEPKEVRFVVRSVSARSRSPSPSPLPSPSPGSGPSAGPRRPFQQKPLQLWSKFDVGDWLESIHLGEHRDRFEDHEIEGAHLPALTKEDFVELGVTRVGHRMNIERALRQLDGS

Legend:
[1] = target: GST-cortactin (the variant with the SH3 domain in the GST pull-down of Fig 4A) (UniProt Q60598); test: pull-down; GST pull-down with GST-cortactin variants from E. coli on glutathione-sepharose (4 μg), incubated with 1 mg cell or brain lysate overnight at 4 °C (Fig 4A); only the target purified
[2] = target: FLAG-tagged full-length DIP2A (disconnected-interacting protein homolog 2 A) (UniProt Q8BWT5); test: co-IP; HEK293 cells co-transfected with HA-cortactin and FLAG-tagged full-length or truncated DIP2A; IP with anti-FLAG antibody, blot for HA-cortactin
[3] = target: T1, FLAG-tagged truncated DIP2A(321-914) (UniProt Q8BWT5); test: as above
T1 sequence: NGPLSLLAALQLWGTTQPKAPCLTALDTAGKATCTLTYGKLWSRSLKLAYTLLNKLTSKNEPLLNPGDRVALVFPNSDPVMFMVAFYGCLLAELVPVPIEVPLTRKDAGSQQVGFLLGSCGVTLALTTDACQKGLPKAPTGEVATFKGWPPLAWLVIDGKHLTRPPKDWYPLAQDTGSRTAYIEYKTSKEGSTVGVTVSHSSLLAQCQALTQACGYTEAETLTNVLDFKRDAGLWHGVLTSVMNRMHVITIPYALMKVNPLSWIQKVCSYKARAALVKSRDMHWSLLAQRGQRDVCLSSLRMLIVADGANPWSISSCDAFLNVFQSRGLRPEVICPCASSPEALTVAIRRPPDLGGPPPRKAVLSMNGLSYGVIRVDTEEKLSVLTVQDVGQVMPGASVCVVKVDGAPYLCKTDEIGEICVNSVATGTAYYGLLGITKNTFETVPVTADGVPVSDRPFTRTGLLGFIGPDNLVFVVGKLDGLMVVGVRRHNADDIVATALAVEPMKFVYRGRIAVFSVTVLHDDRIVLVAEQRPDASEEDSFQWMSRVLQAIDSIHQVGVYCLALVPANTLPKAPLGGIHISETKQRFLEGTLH

[4] = target: T2, FLAG-tagged truncated DIP2A(915-1,562) (UniProt Q8BWT5); test: as above
T2 sequence: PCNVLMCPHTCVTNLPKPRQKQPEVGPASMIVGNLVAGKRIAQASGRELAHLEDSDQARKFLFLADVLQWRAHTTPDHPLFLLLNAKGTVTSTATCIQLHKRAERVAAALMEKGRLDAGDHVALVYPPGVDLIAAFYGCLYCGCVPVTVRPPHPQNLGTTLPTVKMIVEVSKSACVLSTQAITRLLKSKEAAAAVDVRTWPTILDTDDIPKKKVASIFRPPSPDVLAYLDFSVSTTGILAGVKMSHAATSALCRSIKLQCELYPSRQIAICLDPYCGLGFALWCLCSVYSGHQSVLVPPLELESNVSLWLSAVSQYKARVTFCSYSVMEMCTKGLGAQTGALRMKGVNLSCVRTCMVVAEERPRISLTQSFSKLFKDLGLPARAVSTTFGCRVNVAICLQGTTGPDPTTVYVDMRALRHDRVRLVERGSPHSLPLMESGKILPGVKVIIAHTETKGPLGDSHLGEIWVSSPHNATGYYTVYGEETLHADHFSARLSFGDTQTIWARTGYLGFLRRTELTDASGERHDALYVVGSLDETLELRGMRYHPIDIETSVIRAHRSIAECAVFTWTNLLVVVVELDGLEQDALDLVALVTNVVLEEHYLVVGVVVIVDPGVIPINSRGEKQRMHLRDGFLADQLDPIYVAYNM

[5] = target: T3, DIP2A(261-320) region with PXXP motifs (UniProt Q8BWT5); test: pull-down; 'binding assay' of Fig 4B with DIP2A261-320; who was held is not told
T3 sequence: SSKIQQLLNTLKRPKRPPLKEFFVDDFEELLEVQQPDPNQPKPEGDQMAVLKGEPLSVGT

[6] = target: endogenous DIP2A from murine brain lysate (mouse (endogenous in brain)) (UniProt Q8BWT5); test: co-IP; endogenous proteins, murine brain lysate (lysis buffer A), antibodies overnight at 4 °C, Protein A/G-Agarose; which antibody precipitated is not told
[7] = target: endogenous cortactin from murine brain lysate (mouse (endogenous in brain)) (UniProt Q60598); test: as above

binding [1]: binds
Substance: DIP2A of the GST pull-down of Fig 4A (construct not stated) (from UniProt Q8BWT5 1-1523)

binding [2]: binds
binding [3]: no binding
binding [4]: no binding
Substance: HA-tagged cortactin (from UniProt Q60598 1-546)

binding [6]: binds
binding [7]: binds
Substance: endogenous SHANK3 (SH3 and multiple ankyrin repeat domains 3) from murine brain lysate (from UniProt Q4ACU6 1-1730)

The next lines start with the substance.

Substance: cortactin of the binding assays of Fig 4B and 4D (construct not stated) (from UniProt Q60598 1-546)
binding [5]: binds

Substance: endogenous cortactin from murine brain lysate (from UniProt Q60598 1-546)
binding [6]: binds
